Data taken from PubChem BioAssay AID652104 (National Center for Advancing Translational Sciences (NCATS), 2013).
Hit rate of the full screen: of about 410,000 compounds, about 7,200 (1.8%) were called active. This list was built around the results that the source calls inconclusive (neither active nor inactive); the mix of calls is not that of the screen. The call rests on the fitted dose curve; in most records, active means well fitted activation curve with a large enough effect; inconclusive means small, poorly fitted or top-dose-only effect, or another doubt; inactive means no such curve, though single readings can be large or run the other way. Potencies of inconclusive entries are left out as doubtful fits.

assay: qHTS of TDP-43 Inhibitors; settings: TDP-43 expressing yeast growth rescue, BacTiter-Glo, 24 h; growth rescue (activation): at 46.1 µM (top of the series) unless noted; further: nearly all actives have a fitted effect of over 50% in size; on growth rescue (activation): % of control where 0% means no effect
Outline: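 Readout is BacTiter-Glo luminescence of cell growth, so inhibitors register as activators. TDP-43-expressing yeast at OD600=0.02 in galactose medium, after raffinose pregrowth to mid-log, were incubated with compound for 24 hr at 30 deg C.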
Potency means the concentration at half of the fitted maximal effect; tags describe the fitted curve by direction and shape.

SMILES | Potency | growth rescue (activation)
COCCN(C(=S)Nc1cc(C)cc(C)c1)C(C)c1ccco1 (configuration not stated) | inconclusive [activator, single point] | 
CC(=O)Nc1ccc(CNc2nc3cc(-c4ccccc4C)sc3c(=O)n2C)cc1 | inconclusive [activator, single point] | 
CCN(CC(=O)Nc1ccc(OC)cc1)C(=O)c1ccc2[nH]c3c(c2c1)CC(C)CC3 (configuration not stated) | inconclusive [activator, partial curve] | 
CCOc1ccc(C2CC=C(C(C)=O)CN2S(=O)(=O)c2ccc(C)cc2)cc1 (configuration not stated) | inconclusive [activator, partial curve] | 
NC1=CC(=O)C(=O)c2cccnc21 | inconclusive [activator, single point] | 
COCCNC(=S)N/N=C(\C)c1cccc([N+](=O)[O-])c1 | inconclusive [activator, single point] | 
O=C(NCCc1csc(-c2ccccc2)n1)c1ccco1 | inconclusive [activator, single point] | 
Cc1ccc(C2=CC(=O)C[C@H](c3ccc(Cl)cc3)C2)cc1 | active: 15.8 µM | 
C=CCN=C(NC#N)SCc1ccccc1Cl | inconclusive [activator, partial curve, poor fit] | 
Cc1ccc(/C=N/NC(=S)Nc2cccc(S(=O)(=O)N(C)C)c2)o1 | inconclusive [activator, partial curve] | 
CC1(C)COC(c2cc([N+](=O)[O-])ccc2Cl)=N1 | inconclusive [activator, partial curve, poor fit] | 
CC1(C(=O)NCc2ccccc2)Cc2c(-c3ccc4c(c3)OCO4)ccnc2O1 (configuration not stated) | active: 17.8 µM | 
COc1ccc(-c2cc(C(F)(F)F)nc(SCC(=O)N(C)Cc3ccccc3)n2)cc1 | inconclusive [activator, partial curve, poor fit] | 
CCCCOC(=O)c1cc(-c2ccc(/C=N/n3cnnc3)o2)ccc1Cl | inconclusive [activator, partial curve] | 
Cc1cccc(NC(=O)c2ccc(Cn3nc(N4CCN(c5ccccc5)CC4)ccc3=O)o2)c1C | inconclusive [activator, single point] | 
COc1ccc(CN(C)C(=O)c2ccccc2OCc2c(C)noc2C)cc1OC | inconclusive [activator, partial curve, poor fit] | 
COc1ccccc1C(=O)N1CCN(C(=O)c2oc3c(C)c(C)ccc3c2C)CC1 | active: 31.6 µM | 
COc1cccc2c1C(=O)c1c(O)c3c(c(O)c1C2=O)CC(O)(C(C)=O)CC3OC1CC(N(C)C)C(O)C(C)O1 (configuration not stated) |  | inconclusive: -90.4% [activator]
CCc1ccc(C(=O)/C=C/c2ccc([N+](=O)[O-])o2)cc1 |  | inconclusive: -38.4% [activator]
CN(C(=O)CSCC(=O)Nc1ccc(Cl)cc1)C1CCCCC1 | inconclusive [activator, single point] | 
O=C1C=C(c2cccc(Cl)c2)C[C@@H](c2ccc3c(c2)OCO3)C1 | inconclusive [activator, full curve, poor fit] | 
COc1cccc2c3cccc(OC)c3c3[nH]cnc3c12 | inconclusive [activator, single point] | 
Cc1ccc(NC(=O)C2COc3ccccc3O2)cc1C (configuration not stated) | inconclusive [activator, partial curve] | 

SMILES | Potency | growth rescue (activation)
Cc1ccc(OCc2cc(C(=O)NCCc3cccnc3)no2)cc1C | inconclusive [activator, single point] | 
COc1cc(NC(=O)c2ccccc2Cl)c2ncccc2c1 | active: 20 µM | 
CCCCCc1ccc(C2=NNC(=O)CC2)cc1 | active: 12.6 µM | 
Cc1ccc(NC(=O)CSc2nccn2-c2ccccc2)cc1 | inconclusive [activator, single point] | 
CN1C(=O)/C(=C/c2ccccc2F)Sc2ccc(C(=O)NCC3CCCO3)cc21 (configuration not stated) | inconclusive [activator, single point] | 
Cc1nc(SCC(=O)N2CCCC2=O)c2c(C)c(C)sc2n1 | inconclusive [activator, partial curve] | 
COc1cc2ccccc2cc1C(=O)N1CCN(c2ccccc2O)CC1 | active: 12.6 µM | 
CC(C)Nc1ncnc2c1cnn2-c1ccccc1 | inconclusive [activator, partial curve] | 
CC(Nc1ccc([N+](=O)[O-])cc1[N+](=O)[O-])c1ccccc1 (configuration not stated) | active: 12.6 µM | 
O=C(CSc1ccc(F)cc1)Nc1ccccc1Br | inconclusive [activator, partial curve] | 
O=C(Nc1ccc2c(c1)OCCO2)C(c1ccncc1)n1c(=O)c(-c2cc3ccccc3[nH]2)nc2ccccc21 (configuration not stated) | active: 28.2 µM | 
Nc1nc(N)nc(-c2cc(F)ccc2O)n1 | inconclusive [activator, single point] | 
O=[N+]([O-])c1ccc(N/N=C2\CC3CC=CC23)c([N+](=O)[O-])c1 (configuration not stated) | active: 35.5 µM | 
COc1ccc(OC)c2nc(-c3cccnc3)ccc12 | inconclusive [activator, partial curve] | 
Cc1ccc(C)c(N2CCN(C(=O)Cn3nc(C)c4sc5ccccc5c4c3=O)CC2)c1 | inconclusive [activator, partial curve, poor fit] | 
COc1cccc(Nc2nnc(SCC(=O)N(CC(C)C)CC(C)C)s2)c1 | inconclusive [activator, single point] | 
NC(=O)C1CCN(C(=O)c2ccc3nc(-c4ccccc4)c(-c4ccccc4)nc3c2)CC1 | inactive | 
COc1cccc(CNC(=O)C2(C)CCCCN2C)c1 (configuration not stated) | inconclusive [activator, full curve, poor fit] | 
CCC1CN(C(=O)N2CCC(C(=O)NCc3cccc(F)c3)CC2)c2cc(C)ccc2O1 (configuration not stated) | inactive | 
Oc1sc(C=Nc2ccccc2)c2ccccc12 | inconclusive [activator, partial curve, poor fit] | 
O=C(NNC(=O)c1ccccc1OCc1ccccc1Cl)c1csc(N2CCOCC2)n1 | inconclusive [activator, single point] | 
CN(CC(=O)Nc1ccc(Cl)cc1)C(=O)C1CCCC1 | inactive | 
COc1ccc(OC)c(-n2c(SC)nnc2-c2c[nH]c3ccccc23)c1 | inconclusive [activator, full curve, poor fit] | 

SMILES | Potency | growth rescue (activation)
COc1cc(OC)c2c3c(c(C4CCCCC4)nc2c1)CCC3 | inconclusive [activator, full curve, poor fit] | 
COc1ccc(C)cc1NC(=O)CSc1nnnn1Cc1ccccc1 | inconclusive [activator, partial curve] | 
O=C(/C=C/c1ccc(Cl)cc1)c1cccnc1 | inconclusive [activator, single point] | 
O=C(c1cnn(-c2ccc(F)cc2)c1-n1cccc1)N1CCN(c2ccccc2)CC1 | active: 14.1 µM | 
OCc1ccc(-c2ccccc2)c(-c2ccccc2)c1 | inconclusive [activator, single point] | 
S=C(NCc1ccc(Cl)cc1)Nc1ccccc1 | inconclusive [activator, single point] | 
CCc1ccc(NC(=O)CC2C(=O)N(c3ccc(F)cc3)C(=O)N2Cc2ccc(F)cc2)cc1 (configuration not stated) | inactive | 
COc1cccc(C(=O)Nc2ccccc2-c2ccccc2)c1 | inconclusive [activator, single point] | 
Cn1cccc1C(=O)OCC(=O)Nc1ccc2c(c1)OCCO2 | inconclusive [activator, single point] | 
O=C(Nc1cccnc1)c1cc2c(ccc3ccccc32)o1 | inconclusive [activator, partial curve] | 
CN(CC(=O)Nc1ccc(F)cc1)C(=O)COC(=O)c1cc(Br)c(Br)s1 | inconclusive [activator, single point] | 
CN(C)C(=O)c1ccc(-c2cc(C(F)(F)F)n(C)n2)s1 | inconclusive [activator, single point] | 
Cc1cc(F)ccc1NCC(=O)Nc1ccc(Br)cc1C | inconclusive [activator, single point] | 
Cc1ccc(NC(=S)Nc2ccc(F)cc2)cc1C | inconclusive [activator, partial curve] | 
COCCn1c(SCC(=O)N2CCc3ccccc3C2)nc2cc(Cl)ccc2c1=O | inconclusive [activator, single point] | 
Cc1nn(CC(O)Cn2c3c(c4ccccc42)CCN(C)C3=O)c(C)c1Br (configuration not stated) | inconclusive [activator, partial curve] | 
CO[C@@H]1CN(C)C(=O)c2cc(NC(=O)NC3CCCCC3)ccc2OC[C@@H](C)N(CCc2ccccc2)C[C@H]1C | inactive | 
COc1ccc(OC)c(-c2csc(CCn3nc(C)cc3C)n2)c1 | inactive | 
CCN(CC)S(=O)(=O)c1cccc(C(=O)Nc2ccccc2C(=O)Nc2ccc(OC)cc2)c1 | inactive | 
CCOC(=O)C1CCN(C(=O)COc2ccc(Cl)cc2C)CC1 | inconclusive [activator, single point] | 
O=C(c1ccc([N+](=O)[O-])o1)N1CCc2ccccc21 | inconclusive [activator, full curve] | 
